Results are given in words; binding and its absence hold for the method and conditions named. Some results given as binding are weak or reduced against the parent protein; the word gives no strength. Sequences can lack the tags named with a protein.
Columns and labels:
Experiment in all cases: AlphaScreen or HTRF; conditioned media of Fc and FcYTS fusion proteins mixed with Strep-Tactin donor beads and protein A acceptor beads; 150 mM NaCl, 20 mM Na-Hepes pH 7.5, 2 mM CaCl2, 2 mM MgCl2, 2 mg/ml BSA, 0.2% Triton-X100, 0.2% Tween-20; 1 h at room temperature; signal divided by that of the FcYTS protein with Fc only; a pair counts with a signal over background of at least two in each orientation
[1] = target: human RPTPζ ectodomain (amino acids 34-629) fused to human IgG1 Fc or to FcYTS (human) (UniProt P23471)
[2] = target: aggrecan construct from which the GAG regions were deleted (residues 31-2530 with 680-2276 replaced by GS) fused to Fc or FcYTS (UniProt P16112)
[3] = target: mouse RPTPγ ectodomain (amino acids 54-728) fused to Fc or FcYTS (mouse) (UniProt Q05909)
[4] = substrate: FN domain of human RPTPζ (amino acid residues 310-410) fused to human IgG1 Fc (human) (UniProt P23471)

By UniProt entry, the sequences of proteins in these tests, tags left out. Chains listed by the source or under a name are the forms on record and can include a tag or linker. Residues count along the entry.
human RPTPζ ectodomain (amino acids 34-629) fused to human IgG1 Fc or to FcYTS (P23471, residues 34-629): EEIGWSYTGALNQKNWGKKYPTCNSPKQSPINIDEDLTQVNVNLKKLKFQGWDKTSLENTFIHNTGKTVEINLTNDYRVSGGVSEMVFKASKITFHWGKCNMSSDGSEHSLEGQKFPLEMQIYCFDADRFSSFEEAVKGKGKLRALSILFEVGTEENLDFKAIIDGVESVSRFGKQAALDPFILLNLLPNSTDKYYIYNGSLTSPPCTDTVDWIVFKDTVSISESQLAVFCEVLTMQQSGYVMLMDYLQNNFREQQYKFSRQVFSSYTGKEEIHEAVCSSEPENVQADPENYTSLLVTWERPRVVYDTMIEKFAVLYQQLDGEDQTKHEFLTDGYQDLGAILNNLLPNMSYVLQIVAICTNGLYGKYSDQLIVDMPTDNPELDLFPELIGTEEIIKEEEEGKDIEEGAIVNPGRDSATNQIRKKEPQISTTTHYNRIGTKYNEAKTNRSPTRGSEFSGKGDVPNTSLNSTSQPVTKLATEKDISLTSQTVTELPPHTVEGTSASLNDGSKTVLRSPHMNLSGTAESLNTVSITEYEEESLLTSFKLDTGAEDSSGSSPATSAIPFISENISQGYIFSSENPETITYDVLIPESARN
FN domain of human RPTPζ (amino acid residues 310-410) fused to human IgG1 Fc (P23471, residues 310-410): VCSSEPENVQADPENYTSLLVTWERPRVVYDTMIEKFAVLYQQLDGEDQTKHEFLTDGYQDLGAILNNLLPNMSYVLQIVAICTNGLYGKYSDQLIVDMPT
UniProt Q05909, residues 54-728: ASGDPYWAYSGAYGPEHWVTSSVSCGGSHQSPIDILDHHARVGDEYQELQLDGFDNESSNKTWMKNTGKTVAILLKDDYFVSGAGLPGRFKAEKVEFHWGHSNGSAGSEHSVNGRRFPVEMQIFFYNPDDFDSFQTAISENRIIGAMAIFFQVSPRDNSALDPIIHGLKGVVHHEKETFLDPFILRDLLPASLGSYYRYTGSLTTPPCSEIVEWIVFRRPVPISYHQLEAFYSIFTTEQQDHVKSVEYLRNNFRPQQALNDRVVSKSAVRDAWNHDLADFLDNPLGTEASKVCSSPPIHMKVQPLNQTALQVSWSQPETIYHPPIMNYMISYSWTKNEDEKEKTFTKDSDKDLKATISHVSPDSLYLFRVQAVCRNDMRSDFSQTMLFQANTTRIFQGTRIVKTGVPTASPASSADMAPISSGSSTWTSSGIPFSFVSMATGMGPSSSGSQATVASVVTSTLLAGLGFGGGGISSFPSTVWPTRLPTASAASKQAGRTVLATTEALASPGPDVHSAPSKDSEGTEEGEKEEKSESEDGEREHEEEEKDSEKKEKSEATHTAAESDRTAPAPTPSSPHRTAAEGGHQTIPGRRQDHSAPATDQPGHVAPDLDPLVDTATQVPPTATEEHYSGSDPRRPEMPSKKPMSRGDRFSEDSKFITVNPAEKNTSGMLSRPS

binding [1] | binding [2] | binding [3] | binding [4] | Binder
no binding |  |  |  | EGF repeats of human tenascin-R (residues 201-324) fused to Fc or FcYTS (Fc fusion, UniProt Q92752 201-324) EPYCPLGCSSRGVCVDGQCICDSEYSGDDCSELRCPTDCSSRGLCVDGECVCEEPYTGEDCRELRCPGDCSGKGRCANGTCLCEEGYVGEDCGQRQCLNACSGRGQCEEGLCVCEEGYQGPDCS
binds |  |  |  | extracellular region of human contactin-1 excluding the GPI anchor region (amino acids 1-991) fused to Fc or FcYTS (Fc fusion, UniProt Q12860 21-991) EFTWYRRYGHGVSEEDKGFGPIFEEQPINTIYPEESLEGKVSLNCRARASPFPVYKWRMNNGDVDLTSDRYSMVGGNLVINNPDKQKDAGIYYCLASNNYGMVRSTEATLSFGYLDPFPPEERPEVRVKEGKGMVLLCDPPYHFPDDLSYRWLLNEFPVFITMDKRRFVSQTNGNLYIANVEASDKGNYSCFVSSPSITKSVFSKFIPLIPIPERTTKPYPADIVVQFKDVYALMGQNVTLECFALGNPVPDIRWRKVLEPMPSTAEISTSGAVLKIFNIQLEDEGIYECEAENIRGKDKHQARIYVQAFPEWVEHINDTEVDIGSDLYWPCVATGKPIPTIRWLKNGYAYHKGELRLYDVTFENAGMYQCIAENTYGAIYANAELKILALAPTFEMNPMKKKILAAKGGRVIIECKPKAAPKPKFSWSKGTEWLVNSSRILIWEDGSLEINNITRNDGGIYTCFAENNRGKANSTGTLVITDPTRIILAPINADITVGENATMQCAASFDPALDLTFVWSFNGYVIDFNKENIHYQRNFMLDSNGELLIRNAQLKHAGRYTCTAQTIVDNSSASADLVVRGPPGPPGGLRIEDIRATSVALTWSRGSDNHSPISKYTIQTKTILSDDWKDAKTDPPIIEGNMEAARAVDLIPWMEYEFRVVATNTLGRGEPSIPSNRIKTDGAAPNVAPSDVGGGGGRNRELTITWAPLSREYHYGNNFGYIVAFKPFDGEEWKKVTVTNPDTGRYVHKDETMSPSTAFQVKVKAFNNKGDGPYSLVAVINSAQDAPSEAPTEVGVKVLSSSEISVHWEHVLEKIVESYQIRYWAAHDKEEAANRVQVTSQEYSARLENLLPDTQYFIEVGACNSAGCGPPSDMIEAFTKKAPPSQPPRIISSVRSGSRYIITWDHVVALSNESTVTGYKVLYRPDGQHDGKLYSTHKHSIEVPIPRDGEYVVEVRAHSDGGDGVVSQVK
binds | binds | no binding | binds | domains FN1-Fg of human tenascin-R (residues 325-1358) fused to Fc or FcYTS (Fc fusion, UniProt Q92752 325-1358) AVAPPEDLRVAGISDRSIELEWDGPMAVTEYVISYQPTALGGLQLQQRVPGDWSGVTITELEPGLTYNISVYAVISNILSLPITAKVATHLSTPQGLQFKTITETTVEVQWEPFSFSFDGWEISFIPKNNEGGVIAQVPSDVTSFNQTGLKPGEEYIVNVVALKEQARSPPTSASVSTVIDGPTQILVRDVSDTVAFVEWIPPRAKVDFILLKYGLVGGEGGRTTFRLQPPLSQYSVQALRPGSRYEVSVSAVRGTNESDSATTQFTTEIDAPKNLRVGSRTATSLDLEWDNSEAEVQEYKVVYSTLAGEQYHEVLVPRGIGPTTRATLTDLVPGTEYGVGISAVMNSQQSVPATMNARTELDSPRDLMVTASSETSISLIWTKASGPIDHYRITFTPSSGIASEVTVPKDRTSYTLTDLEPGAEYIISVTAERGRQQSLESTVDAFTGFRPISHLHFSHVTSSSVNITWSDPSPPADRLILNYSPRDEEEEMMEVSLDATKRHAVLMGLQPATEYIVNLVAVHGTVTSEPIVGSITTGIDPPKDITISNVTKDSVMVSWSPPVASFDYYRVSYRPTQVGRLDSSVVPNTVTEFTITRLNPATEYEISLNSVRGREESERICTLVHTAMDNPVDLIATNITPTEALLQWKAPVGEVENYVIVLTHFAVAGETILVDGVSEEFRLVDLLPSTHYTATMYATNGPLTSGTISTNFSTLLDPPANLTASEVTRQSALISWQPPRAEIENYVLTYKSTDGSRKELIVDAEDTWIRLEGLLENTDYTVLLQAAQDTTWSSITSTAFTTGGRVFPHPQDCAQHLMNGDTLSGVYPIFLNGELSQKLQVYCDMTTDGGGWIVFQRRQNGQTDFFRKWADYRVGFGNVEDEFWLGLDNIHRITSQGRYELRVDMRDGQEAAFASYDRFSVEDSRNLYKLRIGSYNGTAGDSLSYHQGRPFSTEDRDNDVAVTNCAMSYKGAWWYKNCHRTNLNGKYGESRHSQGINWYHWKGHEFSIPFVEMKMRPYNHRLMAGRKRQSLQF

Reference: publication PMC10371798
